The source of these data is the supplement of paper PMC4604168 (melanoma cell lines).

The list shows a part of the results. Many values rest on one well or one pass, so single values are uncertain.

Among the test systems are WM115; WM1716; WM1745; WM3526; WM3619; WM451Lu.
What all share (assay): cell count relative to DMSO control; melanoma cells; higher = more viable cells
Details in all cases: library dose: low library concentration; 72 h
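Further: cell number obtained by counting DAPI-stained nuclei in high-throughput microscope images with image analysis software, screen run in 1,536-well plates.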

For `COc1ccc(-c2ccc3c(N4CCOCC4)nc(N4C[C@@H](C)O[C@@H](C)C4)nc3n2)cc1CO` + O=C(Oc1ccc([N+](=O)[O-])cc1)N1CCC(C(O)(c2ccc3c(c2)OCO3)c2ccc3c(c2)OCO3)CC1 [JZL184] (first compound 0.02 µM, partner dose 1 µM), the cell count in the test with WM115 stood at 105%; with WM1716 it was 88.8%; in the test on WM1745 it was 96%; in the test on WM3526 it was 77.7%; in the test with WM3619 it was 91.1%; with WM451Lu, 108%.

For the molecule `C[C@@H](N)c1ccc(C(=O)Nc2ccnc3[nH]ccc23)cc1` + C/C(O)=C(\C#N)C(=O)Nc1cc(Br)ccc1Br [LFM-A13] (first compound 0.4 µM, partner dose 2 µM), the cell count in the test on WM115 stood at 99.1%; in the test with WM1716 it was 66.9%; in the test on WM1745, 87.3%; in the test with WM3526 it was 109%; in the test on WM3619, 108%; in the test on WM451Lu, 87.8%.

On to `CC[C@]1(O)C[C@H]2CN(CCc3c([nH]c4ccccc34)[C@@](C(=O)OC)(c3cc4c(cc3OC)N(C=O)[C@H]3[C@@](O)(C(=O)OC)[C@H](OC(C)=O)[C@]5(CC)C=CCN6CC[C@]43[C@@H]65)C2)C1` [vincristine] + O=C(Oc1ccc([N+](=O)[O-])cc1)N1CCC(C(O)(c2ccc3c(c2)OCO3)c2ccc3c(c2)OCO3)CC1 [JZL184] (first compound 0.0001 µM, partner dose 1 µM), for which the cell count with WM115 is 57.6%; in the test on WM1716, 36.3%; with WM1745 it was 83.6%; in the test with WM3526 it was 60.4%; in the test with WM3619 it was 67.1%; with WM451Lu it was 48.4%.

`CNC(=O)c1cc(Oc2ccc(NC(=O)Nc3ccc(Cl)c(C(F)(F)F)c3)cc2)ccn1` [sorafenib] + O=C(Oc1ccc([N+](=O)[O-])cc1)N1CCC(C(O)(c2ccc3c(c2)OCO3)c2ccc3c(c2)OCO3)CC1 [JZL184] (first compound 0.4 µM, partner dose 1 µM): the cell count with WM115 worked out at 98.6%; in the test with WM1716, 91.2%; in the test with WM1745, 97.3%; in the test with WM3526, 87.6%; with WM3619, 123%; in the test on WM451Lu, 123%.

Regarding `NC(=O)c1ccc(N(C(N)=O)c2c(F)cccc2F)nc1-c1ccc(F)cc1F` + C/C(O)=C(\C#N)C(=O)Nc1cc(Br)ccc1Br [LFM-A13] (first compound 0.4 µM, partner dose 2 µM), the cell count in the test with WM115 is 96.8%; in the test with WM1716, 97.9%; in the test on WM1745, 96.4%; in the test on WM3526 it was 86.1%; with WM3619, 91.5%; in the test on WM451Lu, 94.5%.

Take `OCc1c[nH]c2ccccc12` [Indole-3-carbinol] + O=C(Oc1ccc([N+](=O)[O-])cc1)N1CCC(C(O)(c2ccc3c(c2)OCO3)c2ccc3c(c2)OCO3)CC1 [JZL184] (first compound 0.8 µM, partner dose 1 µM): the cell count was determined as 104% in the test on WM115; 97.8% in the test on WM1716; 102% in the test on WM1745; 89.6% with WM3526; 118% in the test on WM3619; 101% with WM451Lu.

Regarding `Cc1cn(-c2cc(NC(=O)c3ccc(C)c(Nc4nccc(-c5cccnc5)n4)c3)cc(C(F)(F)F)c2)cn1` [nilotinib] + N.N.[Cl][Pt][Cl] [cisplatin] (first compound 0.2 µM, partner dose 1.6 µM), the cell count in the test with WM115 was found to be 91%; with WM1716, 101%; in the test with WM1745 it was 90.3%; with WM3526, 88.9%; with WM3619 it was 75.6%; in the test with WM451Lu, 100%.

On to `Cn1cnc2c(F)c(Nc3ccc(Br)cc3Cl)c(C(=O)NOCCO)cc21` [selumetinib] + Cc1cc(SCc2sc(-c3ccc(C(F)(F)F)c(F)c3)nc2C)ccc1OCC(=O)O [GW0742] (first compound 0.015 µM, partner dose 2 µM), for which the cell count in the test with WM115 was determined as 90.2%; with WM1716, 123%; in the test on WM1745 it was 103%; in the test with WM3526, 79.8%; with WM3619, 90.1%; with WM451Lu, 111%.

For the molecule `CC[C@]1(O)C[C@H]2CN(CCc3c([nH]c4ccccc34)[C@@](C(=O)OC)(c3cc4c(cc3OC)N(C=O)[C@H]3[C@@](O)(C(=O)OC)[C@H](OC(C)=O)[C@]5(CC)C=CCN6CC[C@]43[C@@H]65)C2)C1` [vincristine] + C/C(O)=C(\C#N)C(=O)Nc1cc(Br)ccc1Br [LFM-A13] (first compound 0.0001 µM, partner dose 2 µM), the cell count in the test on WM115 was 55.7%; in the test on WM1716, 39%; with WM1745 it was 79.2%; in the test with WM3526, 79.5%; in the test on WM3619, 51.6%; with WM451Lu, 47.5%.

Consider `C=CCNC1=C2C[C@@H](C)C[C@H](OC)[C@H](O)[C@@H](C)/C=C(\C)[C@H](OC(N)=O)[C@@H](OC)/C=C\C=C(/C)C(=O)NC(=CC1=O)C2=O` [Tanespimycin] + C/C(O)=C(\C#N)C(=O)Nc1cc(Br)ccc1Br [LFM-A13] (first compound 0.002 µM, partner dose 2 µM), for which the cell count with WM115 was 98.3%; in the test on WM1716 it was 82.3%; with WM1745, 105%; in the test with WM3526, 91.9%; with WM3619, 93.5%; in the test on WM451Lu, 105%.

For `Nc1cccc2c1CN(C1CCC(=O)NC1=O)C2=O` (stereo not given) [lenalidomide] + C/C(O)=C(\C#N)C(=O)Nc1cc(Br)ccc1Br [LFM-A13] (first compound 1 µM, partner dose 2 µM), the cell count in the test on WM115 is 89.7%; in the test on WM1716 it was 83.8%; with WM1745 it was 99.3%; with WM3526, 87%; in the test on WM3619, 126%; in the test with WM451Lu, 91.3%.

Consider `CC(=O)c1c(C)c2cnc(Nc3ccc(N4CCNCC4)cn3)nc2n(C2CCCC2)c1=O` [palbociclib] + C[As](C)SC[C@H](NC(=O)CC[C@H](N)C(=O)O)C(=O)NCC(=O)O [Darinaparsin] (first compound 0.04 µM, partner dose 0.4 µM), for which the cell count in the test with WM115 worked out at 78.2%; with WM1716 it was 57.9%; in the test on WM1745 it was 83.2%; in the test with WM3526, 63.2%; with WM3619, 62%; in the test with WM451Lu, 83.9%.

For the molecule `COc1cc2c(Oc3ccc4[nH]c(C)cc4c3F)ncnc2cc1OCCCN1CCCC1` [cediranib] + O=C(Oc1ccc([N+](=O)[O-])cc1)N1CCC(C(O)(c2ccc3c(c2)OCO3)c2ccc3c(c2)OCO3)CC1 [JZL184] (first compound 0.4 µM, partner dose 1 µM), the cell count is 106% with WM115; 93.4% in the test with WM1716; 94% with WM1745; 83.4% in the test on WM3526; 111% in the test with WM3619; 94.4% in the test on WM451Lu.

`O=C(/C=C/c1cccnc1)NCCCCC1CCN(C(=O)c2ccccc2)CC1` + N.N.[Cl][Pt][Cl] [cisplatin] (first compound 0.01 µM, partner dose 1.6 µM): the cell count came to 98.8% with WM115; 89.7% in the test on WM1716; 98.7% in the test on WM1745; 104% in the test on WM3526; 65.9% in the test with WM3619; 102% with WM451Lu.

In the case of `O=S(=O)(c1ccccc1)N(CC(F)(F)F)c1ccc(C(O)(C(F)(F)F)C(F)(F)F)cc1` + O=C(Oc1ccc([N+](=O)[O-])cc1)N1CCC(C(O)(c2ccc3c(c2)OCO3)c2ccc3c(c2)OCO3)CC1 [JZL184] (first compound 1.4 µM, partner dose 1 µM), the cell count was determined as 87.7% in the test on WM115; 90% with WM1716; 91.5% in the test with WM1745; 80.9% in the test with WM3526; 110% in the test with WM3619; 109% in the test with WM451Lu.

As for `Cn1cnc2c(F)c(Nc3ccc(Br)cc3Cl)c(C(=O)NOCCO)cc21` [selumetinib] + C[As](C)SC[C@H](NC(=O)CC[C@H](N)C(=O)O)C(=O)NCC(=O)O [Darinaparsin] (first compound 0.015 µM, partner dose 0.4 µM), the cell count in the test with WM115 was 106%; in the test on WM1716, 117%; with WM1745, 99%; with WM3526 it was 85.7%; in the test with WM3619 it was 86.2%; in the test on WM451Lu, 96.1%.

Regarding `CS(=O)(=O)CCNCc1ccc(-c2ccc3ncnc(Nc4ccc(OCc5cccc(F)c5)c(Cl)c4)c3c2)o1` [lapatinib] + Cc1cc(SCc2sc(-c3ccc(C(F)(F)F)c(F)c3)nc2C)ccc1OCC(=O)O [GW0742] (first compound 0.8 µM, partner dose 2 µM), the cell count with WM115 turned out to be 100%; in the test on WM1716 it was 94.6%; in the test with WM1745, 90.1%; in the test with WM3526, 104%; in the test on WM3619, 88.2%; with WM451Lu it was 108%.

In the case of `O=C(Oc1ccc([N+](=O)[O-])cc1)N1CCC(C(O)(c2ccc3c(c2)OCO3)c2ccc3c(c2)OCO3)CC1` + CCCCCCCCCCCC1=C(O)C(=O)C=C(O)C1=O [Embelin] (first compound 1 µM, partner dose 1.2 µM), the cell count in the test with WM115 was 107%; in the test on WM1716, 91.1%; in the test with WM1745 it was 104%; in the test with WM3526 it was 88.5%; in the test on WM3619, 90.7%; in the test with WM451Lu it was 114%.

Turning to `CCc1ccc(CCOc2ccc(CC3SC(=O)NC3=O)cc2)nc1` (stereo not given) [pioglitazone] + C/C(O)=C(\C#N)C(=O)Nc1cc(Br)ccc1Br [LFM-A13] (first compound 2 µM, partner dose 2 µM), the cell count with WM115 worked out at 93.1%; in the test with WM1716, 101%; in the test on WM1745, 76%; in the test on WM3526, 84.2%; with WM3619 it was 101%; in the test with WM451Lu it was 104%.

Regarding `COC(=O)c1sccc1S(=O)(=O)Nc1ccc(Nc2ccccc2)cc1OC` + Cc1cc(SCc2sc(-c3ccc(C(F)(F)F)c(F)c3)nc2C)ccc1OCC(=O)O [GW0742] (first compound 1 µM, partner dose 2 µM), the cell count in the test on WM115 stood at 89.8%; in the test on WM1716, 94.9%; with WM1745, 89.6%; with WM3526, 101%; in the test with WM3619, 94.8%; in the test with WM451Lu, 95.6%.

Regarding `COc1cc([C@@H]2c3cc4c(cc3[C@@H](O[C@@H]3O[C@@H]5CO[C@@H](C)O[C@H]5[C@H](O)[C@H]3O)[C@H]3COC(=O)[C@H]23)OCO4)cc(OC)c1O` [etoposide] + C/C(O)=C(\C#N)C(=O)Nc1cc(Br)ccc1Br [LFM-A13] (first compound 0.02 µM, partner dose 2 µM), the cell count with WM115 was found to be 99.3%; in the test on WM1716, 96.2%; in the test on WM1745, 105%; in the test on WM3526 it was 96.8%; in the test on WM3619, 75.8%; with WM451Lu it was 97.1%.

`CS(=O)(=O)c1ccc(C(=O)Nc2ccc(Cl)c(-c3ccccn3)c2)c(Cl)c1` [vismodegib] + C/C(O)=C(\C#N)C(=O)Nc1cc(Br)ccc1Br [LFM-A13] (first compound 1 µM, partner dose 2 µM): the cell count with WM115 worked out at 107%; in the test on WM1716, 132%; with WM1745 it was 107%; in the test with WM3526, 84.9%; in the test on WM3619, 138%; with WM451Lu it was 77.6%.

In the case of `O=C(/C=C/c1cccnc1)NCCCCC1CCN(C(=O)c2ccccc2)CC1` + O=C(Oc1ccc([N+](=O)[O-])cc1)N1CCC(C(O)(c2ccc3c(c2)OCO3)c2ccc3c(c2)OCO3)CC1 [JZL184] (first compound 0.01 µM, partner dose 1 µM), the cell count was 82.8% in the test on WM115; 91.1% in the test on WM1716; 118% in the test with WM1745; 98.3% in the test on WM3526; 99% in the test on WM3619; 103% in the test on WM451Lu.

Take `CN(c1ncccc1CNc1nc(Nc2ccc3c(c2)CC(=O)N3)ncc1C(F)(F)F)S(C)(=O)=O` + C/C(O)=C(\C#N)C(=O)Nc1cc(Br)ccc1Br [LFM-A13] (first compound 0.08 µM, partner dose 2 µM): the cell count with WM115 is 85.3%; in the test with WM1716, 83.7%; with WM1745 it was 90.7%; in the test on WM3526, 86.8%; with WM3619 it was 76%; in the test with WM451Lu, 74%.

With `C[C@@H](Oc1cc(-c2cnn(C3CCNCC3)c2)cnc1N)c1c(Cl)ccc(F)c1Cl` [Crizotinib] + O=C(Oc1ccc([N+](=O)[O-])cc1)N1CCC(C(O)(c2ccc3c(c2)OCO3)c2ccc3c(c2)OCO3)CC1 [JZL184] (first compound 0.2 µM, partner dose 1 µM), the cell count in the test on WM115 stood at 93.8%; with WM1716 it was 94.8%; in the test on WM1745 it was 112%; with WM3526 it was 93.4%; in the test on WM3619 it was 117%; in the test with WM451Lu it was 98.5%.
